Reference: PMC9911399, “Two distinct binding modes provide the RNA-binding protein RbFox with extraordinary sequence specificity”
Where a chain is given by its changes, count along the chain named. The list shows a part of the results.

T1: RBFOX1 RRM (Homo sapiens, UniProt Q9NWB1 109-208)
T1 sequence: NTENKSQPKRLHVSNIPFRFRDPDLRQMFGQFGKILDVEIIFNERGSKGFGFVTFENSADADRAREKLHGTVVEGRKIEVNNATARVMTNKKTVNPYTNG

B1: UUAAGGG (DNA:RNA)
RNA: GGGAGACCGGAAUUCAGAUUGUCCUUAAGGGUUAAAUCCCGUCGUAGCCACCA
DNA 1: CAATCTGAATTCCGGTCTCCC
DNA 2: TGGTGGCTACGACGGGATT
B2: UUCUACC (DNA:RNA)
RNA: B1 RNA with A27C, A28U, G29A, G30C, G31C
DNA 1: CAATCTGAATTCCGGTCTCCC
DNA 2: TGGTGGCTACGACGGGATT
B3: ACUGCUC (DNA:RNA)
RNA: GGGAGACCGGAAUUCAGAUUGUCCACUGCUCUUAAAUCCCGUCGUAGCCACCA
DNA 1: CAATCTGAATTCCGGTCTCCC
DNA 2: TGGTGGCTACGACGGGATT
B4: UCCGUUG (DNA:RNA)
RNA: B3 RNA with A25U, U27C, C29U, C31G
DNA 1: CAATCTGAATTCCGGTCTCCC
DNA 2: TGGTGGCTACGACGGGATT
B5: CGUACGU (DNA:RNA)
RNA: B3 RNA with A25C, C26G, G28A, U30G, C31U
DNA 1: CAATCTGAATTCCGGTCTCCC
DNA 2: TGGTGGCTACGACGGGATT
B6: GGGCGCA (DNA:RNA)
RNA: B1 RNA with U25G, U26G, A27G, A28C, G30C, G31A
DNA 1: CAATCTGAATTCCGGTCTCCC
DNA 2: TGGTGGCTACGACGGGATT
B7: AACAGAC (DNA:RNA)
RNA: B3 RNA with C26A, U27C, G28A, C29G, U30A
DNA 1: CAATCTGAATTCCGGTCTCCC
DNA 2: TGGTGGCTACGACGGGATT
B8: GGCCAGG (DNA:RNA)
RNA: B1 RNA with U25G, U26G, A27C, A28C, G29A
DNA 1: CAATCTGAATTCCGGTCTCCC
DNA 2: TGGTGGCTACGACGGGATT
B9: GGCGGUG (DNA:RNA)
RNA: B3 RNA with A25G, C26G, U27C, C29G, C31G
DNA 1: CAATCTGAATTCCGGTCTCCC
DNA 2: TGGTGGCTACGACGGGATT
B10: ACCACGC (DNA:RNA)
RNA: B3 RNA with U27C, G28A, U30G
DNA 1: CAATCTGAATTCCGGTCTCCC
DNA 2: TGGTGGCTACGACGGGATT
B11: UAAUGUC (DNA:RNA)
RNA: B1 RNA with U26A, A28U, G30U, G31C
DNA 1: CAATCTGAATTCCGGTCTCCC
DNA 2: TGGTGGCTACGACGGGATT
B12: GUUCAAC (DNA:RNA)
RNA: B3 RNA with A25G, C26U, G28C, C29A, U30A
DNA 1: CAATCTGAATTCCGGTCTCCC
DNA 2: TGGTGGCTACGACGGGATT
B13: AAAUAUG (DNA:RNA)
RNA: B3 RNA with C26A, U27A, G28U, C29A, C31G
DNA 1: CAATCTGAATTCCGGTCTCCC
DNA 2: TGGTGGCTACGACGGGATT
B14: UCCUCUC (DNA:RNA)
RNA: B3 RNA with A25U, U27C, G28U
DNA 1: CAATCTGAATTCCGGTCTCCC
DNA 2: TGGTGGCTACGACGGGATT
B15: GUCGGUU (DNA:RNA)
RNA: B3 RNA with A25G, C26U, U27C, C29G, C31U
DNA 1: CAATCTGAATTCCGGTCTCCC
DNA 2: TGGTGGCTACGACGGGATT
B16: CGGGGAA (DNA:RNA)
RNA: B3 RNA with A25C, C26G, U27G, C29G, U30A, C31A
DNA 1: CAATCTGAATTCCGGTCTCCC
DNA 2: TGGTGGCTACGACGGGATT
B17: AGCGUUC (DNA:RNA)
RNA: B3 RNA with C26G, U27C, C29U
DNA 1: CAATCTGAATTCCGGTCTCCC
DNA 2: TGGTGGCTACGACGGGATT
B18: UCACGCA (DNA:RNA)
RNA: B1 RNA with U26C, A28C, G30C, G31A
DNA 1: CAATCTGAATTCCGGTCTCCC
DNA 2: TGGTGGCTACGACGGGATT
B19: UCCAUUC (DNA:RNA)
RNA: B3 RNA with A25U, U27C, G28A, C29U
DNA 1: CAATCTGAATTCCGGTCTCCC
DNA 2: TGGTGGCTACGACGGGATT
B20: UAUGGCU (DNA:RNA)
RNA: B3 RNA with A25U, C26A, C29G, U30C, C31U
DNA 1: CAATCTGAATTCCGGTCTCCC
DNA 2: TGGTGGCTACGACGGGATT

What follows are binders tested against T1, RBFOX1 RRM (assay: EMSA; HiTS-Eq, 1 nM pool, 10 min; buffer printed only for the single-RNA assays: 10 mM Tris pH 7.5, 150 mM NaCl, 3.4 mM EDTA, 0.001% NP-40, 30 C). Details: tags: His6 N-terminal (pET28a); label: 5' 32P.
How it was run: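 Purified RbFox RRM (wild type or mutant) was equilibrated for 10 min in 50 µL with 1 nM of a 5′-radiolabelled pool of RNA with 7 randomized nucleotides, its flanks annealed to DNA oligonucleotides, across increasing protein concentrations. Free RNA was separated by 8% native PAGE, excised, reverse-transcribed, PCR-barcoded and sequenced on an Illumina HiSeq 2500. Relative association constants came from read-count changes of each variant against the control reaction, normalised to the cognate motif.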

Binder	binding signal
B1	0.00125 KA relative to UGCAUGU
B2	0.00615 KA relative to UGCAUGU
B3	0.00965 KA relative to UGCAUGU
B4	0.0195 KA relative to UGCAUGU
B5	0.0104 KA relative to UGCAUGU
B6	0.0231 KA relative to UGCAUGU
B7	0.00241 KA relative to UGCAUGU
B8	0.00693 KA relative to UGCAUGU
B9	0.0257 KA relative to UGCAUGU
B10	0.000829 KA relative to UGCAUGU
B11	0.0138 KA relative to UGCAUGU
B12	0.00855 KA relative to UGCAUGU
B13	0.00609 KA relative to UGCAUGU
B14	0.0047 KA relative to UGCAUGU
B15	0.0211 KA relative to UGCAUGU
B16	0.0229 KA relative to UGCAUGU
B17	0.0128 KA relative to UGCAUGU
B18	0.00861 KA relative to UGCAUGU
B19	0.00425 KA relative to UGCAUGU
B20	0.0165 KA relative to UGCAUGU
